These results are taken from ChEMBL document CHEMBL4888484, “Replenishing the malaria drug discovery pipeline: Screening and hit evaluation of the MMV Hit Generation Library 1 (HGL1) against asexual blood stage Plasmodium falciparum ,using a nano luciferase reporter read-out” (2022).

Out of some 150,000 compounds screened, about 540 (0.36%) showed an effect of 50% or more. Some of the results follow.

The test system of this test is Plasmodium falciparum. In words: Primary screen in NF54 nanoGlo assay, in single point, at 2uM, 72h; a lower Z score goes with more inhibition. The format is functional, Erythrocyte. The following applies: timepoint 72 hour.
For `CC(C)C[C@H]1CN(C(=O)c2cccn2C2CC2)CCO1`, the % Inhibition (usually the relative decrease from the control value, in per cent) is reported as -6% and the Z score was 1.02.

For `O=C1c2cccc3cccc(c23)C(=O)N1c1ccncc1`, the “% Inhibition” value is listed as -14% and the Z score is on record as 1.8.

As to `Cc1nc(NC(=O)Cc2cccc3ccccc23)oc1C`, the “% Inhibition” value is recorded as -8% and the Z score came to 0.95.

With `CCCCNC(=O)Cc1noc(CCc2cccc(O)c2)n1`, the “% Inhibition” value is -3% and the Z score came out at 0.41.

Regarding `COC(=O)c1c(C)[nH]c(-c2nc(Cc3csc(C)n3)sc2C)c1C`, the “% Inhibition” value is reported as -2% and the Z score is given as 0.29.

As for `Cc1ccc(-c2noc(CCN3CCN(C(C)C)CC3)n2)cc1`, the “% Inhibition” value was -2% and the Z score is given as 0.3.

As to `CC(Cc1ccc(Cl)cc1Cl)NC(=O)C1CCN(C)C(=O)C1` (stereo unspecified), the “% Inhibition” value is recorded as -8% and the Z score is given as 1.42.

Take `CC(C)(CC1CCCCCC1)NC(=O)c1cncnc1`: the “% Inhibition” value is reported as -6% and the Z score came to 0.82.

For the molecule `Cc1cc(NC(=O)N2CC3CCCCC32c2ccccc2)c[nH]c1=O` (stereo unspecified), the “% Inhibition” value was determined as 3% and the Z score is listed as -0.36.

Regarding `Cc1ccc(Cn2c(N3CCOCC3)nc3cc(C(=O)NCCCOC(C)C)ccc3c2=O)cc1`, the “% Inhibition” value is on record as -12% and the Z score is on record as 2.34.

As to `Cc1cccc(C)c1CN(C)CC(C)(CO)CO`, the “% Inhibition” value was 2% and the Z score is -0.31.

Take `CC(=O)NCCC(=O)Nc1c(C)cc(C)cc1C`: the “% Inhibition” value is given as -9% and the Z score was found to be 1.79.

With `COc1ccc(NC(=O)Cn2c3cc(=O)n(CCN4CCOCC4)c(C)c3c(=O)n2-c2nc3ccccc3s2)cc1`, the “% Inhibition” value was 33% and the Z score was -3.71.

As to `CC(C)c1cc(C(=O)NC2Cc3ccccc3C2)n[nH]1`, the “% Inhibition” value was 28% and the Z score is -3.83.

Regarding `Cc1ccc(NC(=O)Cn2nc(N3CCC[C@H](C)C3)c3ccccc3c2=O)cc1`, the “% Inhibition” value was -6% and the Z score came to 0.95.

Take `CCc1nncn1[C@H]1CCN(S(=O)(=O)c2cc(F)ccc2OC)C1`: the “% Inhibition” value is reported as -11% and the Z score is 1.85.

`O=C(N[C@H]1CCOC[C@H]1C1CCOCC1)c1c[nH]c(=O)c(Cl)c1`: the “% Inhibition” value was 1% and the Z score is -0.13.

For the molecule `CCCc1nnsc1C(=O)N1CC(Cn2cncn2)C1`, the “% Inhibition” value is -17% and the Z score came out at 2.18.

Consider `CO[C@@H](CNc1cc(C#N)ccn1)C(C)(C)C`, for which the “% Inhibition” value is on record as -18% and the Z score was 1.67.

Consider `Cc1nccc(O[C@H]2CCCN(C(=O)c3cc(=O)[nH]c(=O)[nH]3)C2)n1`, for which the “% Inhibition” value stood at 11% and the Z score is reported as -1.56.

`CCCCc1cc(NS(=O)(=O)c2cc(C)oc2C)[nH]n1`: the “% Inhibition” value is recorded as 0% and the Z score was -0.01.

For the molecule `O=C(NCC1CC1)c1ccc2c(c1)C(=O)N(C[C@H]1CCCO1)C2=O`, the “% Inhibition” value is reported as -6% and the Z score came out at 1.07.

In the case of `CN(C)c1ccc(CN2Cc3nc[nH]c3C[C@H]2c2nc(-c3ccc(Cl)cc3)no2)cc1`, the “% Inhibition” value is on record as -7% and the Z score came out at 0.94.

`Nc1ncc(Cl)cc1S(=O)(=O)N1CCNC(=O)CC1`: the “% Inhibition” value is given as -10% and the Z score was 1.17.

As for `O=S(=O)(NCc1nnc2c(C(F)(F)F)cccn12)C1CC1`, the “% Inhibition” value turned out to be 18% and the Z score is -2.23.

Take `CC(C)c1nc(CN2CC[C@@]3(C2)NC(=O)N(C(C)C)C3=O)cs1`: the “% Inhibition” value is listed as 7% and the Z score is given as -0.75.

With `Fc1cnc(-c2ccc(C3CCCC3)cc2)nc1N1CCOCC1`, the “% Inhibition” value was -10% and the Z score is 1.93.

As to `CCCN(CC(=O)O)C(=O)c1cc(C)cc(F)c1`, the “% Inhibition” value is recorded as -11% and the Z score amounted to 1.29.

With `O=C(NCCOc1ccccc1F)c1cc(-c2ccc(O)cc2)n[nH]1`, the “% Inhibition” value was 3% and the Z score was -0.59.

For `O=C(c1cccs1)N(c1ccc(Cl)c(Cl)c1)c1nc2ccccc2s1`, the “% Inhibition” value is 0% and the Z score is given as 0.05.

`O=c1c(NCCN2CCCC2)nc2ccncc2n1Cc1ccccc1`: the “% Inhibition” value is -8% and the Z score stood at 0.75.

As for `CN(CC1CCC1)C(=O)NC[C@@H](c1ccco1)N1CCCC1`, the “% Inhibition” value is -3% and the Z score came to 0.64.

As to `CC(C)CN(CC(C)C)S(=O)(=O)c1ccc(Br)cc1`, the “% Inhibition” value is -10% and the Z score stood at 1.28.

In the case of `C[C@H](NC(=O)N1CCOCC1)c1nc(-c2ccccn2)no1`, the “% Inhibition” value was -10% and the Z score was determined as 1.49.

Turning to `Cc1ccccc1C(C)(C)CNC(=O)CCS(=O)(=O)N(C)C`, the “% Inhibition” value was -14% and the Z score is reported as 1.75.

With `CCCN(CC(=O)N1CCn2cccc2[C@H]1c1ccccc1F)C(=O)c1ccc(C)cc1`, the “% Inhibition” value was -2% and the Z score turned out to be 0.17.

Regarding `CC(C)Oc1cc(-c2cccc(C(=O)NCc3cnn(C)c3)c2)nc(N)n1`, the “% Inhibition” value was -8% and the Z score is given as 0.78.

In the case of `CC(NC(C)C1CCCO1)C(=O)N(C)C(C)C` (stereo unspecified), the “% Inhibition” value is listed as -13% and the Z score is reported as 2.08.

With `Cc1cccc(C(=O)N2CCc3[nH]c4ccc(F)cc4c3C2)n1`, the “% Inhibition” value was -12% and the Z score came to 1.35.

On to `Cc1onc(-c2ccccc2)c1-c1n[nH]c2c1CN(S(C)(=O)=O)CC2`, for which the “% Inhibition” value is listed as -3% and the Z score is 0.33.

Turning to `COc1cccc(-c2nc(NCc3ccncc3)ncc2C(=O)O)c1`, the “% Inhibition” value was -6% and the Z score was 0.73.

Take `CC(c1ccc(Cl)cc1)C(C)N(C)S(=O)(=O)N(C)C` (stereo unspecified): the “% Inhibition” value is reported as -2% and the Z score is 0.18.

For the molecule `CCc1nsc(NCc2cc3n(n2)CCC3)n1`, the “% Inhibition” value is 29% and the Z score is on record as -3.25.
